Results published in the supplement of paper PMC3334620.
In all, about 33,000 sequences were measured (“E-score (-0.5 to 0.5)”: median about -0.035, highest 2% from about 0.35 on). This is one part of the list.

The sequences below were run against T1, Pdr3 (UniProt P33200) (assay: PBM E-score (8-mer binding enrichment) (E-score (-0.5 to 0.5)); higher = stronger / more preferred TF binding; most listed sequences are background and not binding sites). Details: protein concentration: 200 nM; construct: GST-full length.
T1 sequence: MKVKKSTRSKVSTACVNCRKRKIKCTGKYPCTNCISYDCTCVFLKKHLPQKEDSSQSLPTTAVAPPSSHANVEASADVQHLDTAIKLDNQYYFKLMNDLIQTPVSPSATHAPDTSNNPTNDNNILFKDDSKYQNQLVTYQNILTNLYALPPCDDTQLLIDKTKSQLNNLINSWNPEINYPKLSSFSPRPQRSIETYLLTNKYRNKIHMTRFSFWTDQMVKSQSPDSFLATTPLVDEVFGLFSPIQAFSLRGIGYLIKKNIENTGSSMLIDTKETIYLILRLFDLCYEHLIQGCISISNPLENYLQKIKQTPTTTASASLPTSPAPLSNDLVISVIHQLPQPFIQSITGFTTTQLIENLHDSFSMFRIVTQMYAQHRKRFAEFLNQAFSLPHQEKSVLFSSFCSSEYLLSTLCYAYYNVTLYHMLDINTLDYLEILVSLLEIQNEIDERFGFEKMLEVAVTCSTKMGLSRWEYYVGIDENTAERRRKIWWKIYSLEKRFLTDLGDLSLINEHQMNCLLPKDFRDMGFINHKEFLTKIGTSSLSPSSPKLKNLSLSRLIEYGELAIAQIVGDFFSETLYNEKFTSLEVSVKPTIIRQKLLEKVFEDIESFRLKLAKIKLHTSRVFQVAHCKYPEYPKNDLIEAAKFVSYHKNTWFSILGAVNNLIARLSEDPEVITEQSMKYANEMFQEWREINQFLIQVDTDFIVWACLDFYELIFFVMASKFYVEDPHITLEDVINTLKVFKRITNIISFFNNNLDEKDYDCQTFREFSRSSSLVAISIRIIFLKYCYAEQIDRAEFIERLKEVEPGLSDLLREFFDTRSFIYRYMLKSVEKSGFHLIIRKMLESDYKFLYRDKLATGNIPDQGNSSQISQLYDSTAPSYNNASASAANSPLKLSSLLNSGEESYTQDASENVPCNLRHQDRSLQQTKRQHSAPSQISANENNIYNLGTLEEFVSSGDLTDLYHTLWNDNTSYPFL
Method in brief: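 PURExpress in vitro transcription/translation supplied GST-tagged yeast transcription factors, either full-length or DNA-binding domain. Applied at about 100-200 nM to universal all-10-mer Agilent arrays double-stranded by primer extension, the bound protein was detected with fluorescent anti-GST. E-scores, modified Wilcoxon-Mann-Whitney statistics, were given by the Universal PBM Analysis Suite to ungapped eight-base words pooled with their reverse complements after masliner normalisation.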

Sequence	PBM E-score
TCCAGAGA	-0.24
TCAATAAA	-0.164
ATTATAAA	0.0934
CCTAGCGA	-0.248
CGGTTAAA	0.0999
ACTGCATC	0.041
GAGGTTGA	-0.0607
TTGAGCAA	-0.106
GCAGAGAC	-0.176
GAGTACGC	-0.0719
CAGACCAC	-0.0692
TACCGAGA	0.0153
AAGCCCCG	0.146
GACTCAGA	-0.168
AATTTGAC	-0.0174
ATCGCTCG	0.137
ACTACACT	-0.165
ACGATAAC	-0.0365
TTTATAAA	0.264
ACTGGAAC	0.0779
AGTCGATG	-0.0539
AAGCCAGT	-0.399
ATGAGGTG	-0.101
TGGACACA	0.0497
GCAGGGTA	-0.178

Sequence	PBM E-score
AATCCCTG	-0.0189
AGCGTTGA	-0.159
GACGGTGC	0.0508
GTGGCCAC	0.208
CGATGATC	0.00549
ATGTCACG	-0.054
AGGGAGGC	-0.0862
ACTCGCGG	0.0678
AAGACGAG	-0.144
GAGGCAAA	0.0299
CGGATCCG	0.489
GGCCCTAA	-0.0464
TATAGGGA	0.033
CAGAGTCA	-0.219
TATTCCCA	0.0626
AGATGGTC	-0.0811
GAGACTAA	-0.0463
CGGGCAGC	0.311
CACCCGCG	0.42
AGCCGTTA	0.0751
GCGGGTCA	0.149
CTAGTCAG	-0.316
CTTACAAG	-0.287
AAATTTGA	0.0772
GCGATTCC	0.34

Sequence	PBM E-score
ACATACCT	-0.153
GTACTGAC	0.0573
CGATCTTC	0.0584
AACTACGG	0.148
CCCCGTTA	-0.0425
AACGCTCT	-0.296
AGGAGGTC	-0.3
CAGCCCAG	-0.0737
GAGATTGC	0.00891
AGCGTAGC	-0.158
AATAGCGG	0.0347
GAGTATTA	-0.139
CCTTCGTC	-0.0279
CTCCGCCC	0.322
GCAGAGTA	-0.09
CAAACGGC	0.0983
ATTGAAGG	-0.167
CCTGTGAC	-0.23
AAGCTGAC	-0.0901
CCGGCATC	0.297
AAATGCCG	0.321
CCGAACCA	0.244
TCGGAGCA	0.28
AGCCCGCA	0.0472
ACCTGAGA	-0.106

Sequence	PBM E-score
CCCTCTAC	-0.26
AATGATTC	0.0328
ACCGACCC	0.148
ACCGCAGT	-0.0479
GAGCCCGA	0.0338
AAAAGGAC	-0.127
AACCACTG	0.0187
CCCTATGC	-0.0766
AGAAAGCG	-0.0665
ACTTCGGA	0.318
CCTAAGGA	-0.0766
AGGCGACT	-0.181
CAACACCG	0.0699
CTATAGTC	-0.252
ACTTACAA	-0.111
AAGAGTAA	-0.0182
ATTCCTCG	0.173
AACCGTAT	-0.168
ACTCCCCA	-0.057
CCGCCCCA	0.232
AGTGTCTA	-0.166
CGTAATCA	-0.0531
CTTACTCC	0.0953
ATGGGTAA	0.0423
GTGGCAAC	0.0213

Sequence	PBM E-score
ATATTATA	-0.00722
ATACACCG	0.1
ACGGAAGA	0.373
CTGGTCAA	-0.0866
CTAGACCA	-0.277
CGGCCTGA	0.00266
AAGCGGCC	0.0193
ATTTAGAA	-0.196
CCGTACCG	0.24
GGCACAAA	0.0885
GACAAAGA	-0.0013
CAGTGTAA	0.132
GGACCCAC	0.03
CACGAGCG	-0.129
AACCATTA	0.0693
AGGAGCTC	-0.135
CCGGTCTA	-0.0526
GAGGATGA	-0.114
AGACCATC	-0.147
CAGGTCTA	0.0945
CACTCCTC	0.0698
CTACGACC	-0.144
AGCTCCGG	0.389
CGGTGCTC	0.0311
ATAATACG	0.114

Sequence	PBM E-score
AACGGAAA	0.464
CAGGCCCG	0.125
ACATACTG	0.154
CACTCACG	0.0943
CTGATACC	-0.165
AGAAATCG	-0.0345
GACTCATA	-0.0806
CGGCGCTC	0.138
TCGCGTAA	0.00456
AGTCTCGA	-0.176
CTTCTCCC	-0.0265
GTCCAGCA	-0.11
AGTTAAGC	0.00589
ACTAACAC	-0.0275
AAGTCTCA	-0.263
CTAATGAA	0.0633
AAAGATAG	-0.169
AACGCATC	-0.139
CCTAATCG	0.0545
CTTTTGAA	0.0453
CTTGGAGA	-0.048
CGCGAAAA	0.096
TAGTGAAA	-0.159
CGTACTAG	-0.0852
GGACCTTA	0.0891

Sequence	PBM E-score
CCCTAGGC	-0.161
ATGACCGA	0.0641
CTACCCGA	0.167
AGAGGCGG	0.0483
AAACTCTG	0.0425
CGGGCACC	0.296
AAAAGTTC	0.112
ATTTTCTA	-0.183
GGTACCAA	0.00603
AATAGATG	-0.0108
GTTAGTTA	0.11
CGTGCTGC	-0.0883
GCCGAGCC	0.198
ACACTCGA	-0.114
CACTGTCC	0.0603
AACTGATA	0.0335
CTGCAACC	-0.227
CATTTGAA	-0.0395
CTCTCCGC	0.237
GTACTTTA	-0.147
CCCAGCCG	0.108
CCGCTGGC	-0.0496
